PubChem BioAssay AID686979 (National Center for Advancing Translational Sciences (NCATS), 2013)
Several values for one entry are separate records, joined by “and”; a condition that tells them apart may be missing. Equal entries are not always repeated. The campaign covered roughly 420,000 compounds. About 50,000 (12%) were called active. The inconclusive results got no clear call from the source; some entries with a clear call stand among them for comparison. Calls follow the shape of the dose curve; as a rule, active = well fitted inhibition curve with a large enough effect; inconclusive = small, poorly fitted or top-dose-only effect; inactive = flat fitted curve, though single readings scatter. Potencies of inconclusive entries are doubtful fits and often do not repeat.

Assay: qHTS for Inhibitors of human tyrosyl-DNA phosphodiesterase 1 (TDP1): qHTS in cells in presence of CPT; also: nearly all actives have a fitted effect of over 55% in size
Conditions: chicken DT40 Tdp1-/-;hTDP1 cells + 20 nM CPT, ATP luminescence, 48 h; activity change, negative = growth inhibition: at 46.2 µM (top of the series) unless noted
How it was run: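 Chicken DT40 Tdp1-/- cells stably complemented with human TDP1 were seeded at 400 cells/well in medium containing 20 nM camptothecin, exposed to pin-transferred compounds, and grown at 37 °C for at least 48 hr. Viability was read as ATP luminescence.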
% is scaled to controls: 0 for no effect and ±100 for the full control effect; potency is read from the fitted curve at half-maximal effect; tags tell the direction and shape of the fitted curve.

| SMILES | Potency | activity change, negative = growth inhibition |
| --- | --- | --- |
| CCOC(=O)c1c(NC(=O)COC(=O)c2ncc(Cl)c(Cl)c2Cl)sc(C(=O)N(C)C)c1C | inconclusive: 9.2 µM [inhibitor, partial curve] |  |
| CCCOc1ccc(C(=O)CCN2CCN(C(=O)OCC)CC2)cc1 | active: 2.31 µM |  |
| Cc1cccc(-c2nc3scc(CCNC(=O)c4ccc(Br)o4)n3n2)c1 | inconclusive: 29.1 µM [inhibitor, single point] |  |
| CC(C)CC(C(=O)NC1CCCC1)N(Cc1cccs1)C(=O)c1snc(C(N)=O)c1N (configuration not stated) | inconclusive: 20.6 µM [inhibitor, single point] |  |
| Cc1cc(C)cc(Nc2cc(C)nc3nncn23)c1 | inconclusive: 29.1 µM [inhibitor, single point] |  |
| COC(=O)CSc1nc(C)c(C(=O)Nc2ccccc2C)c(-c2ccc(Cl)cc2)c1C#N | inconclusive: 29.1 µM [inhibitor, single point] |  |
| O=C(NCc1ccccc1)c1cc(C2CCCN(S(=O)(=O)c3cccc4cccnc34)C2)on1 (configuration not stated) | inconclusive: 25.9 µM [inhibitor, single point] |  |
| O=c1c2ccccc2ncn1-c1ccc([N+](=O)[O-])cc1[N+](=O)[O-] | active: 16.4 µM |  |
| OCCCNc1nc(-c2ccccc2)c2cc(Cl)ccc2n1 | inconclusive: 23.1 µM [inhibitor, single point] |  |
| COc1ccc(CCNC(=O)CCc2c(C)nc3cc(-c4ccccc4OC)nn3c2C)c(OC)c1 | inconclusive: 29.1 µM [inhibitor, single point] |  |
| Cc1csc(SCC(=O)NC23CC4CC(CC(C4)C2)C3)n1 | inconclusive: 29.1 µM [inhibitor, single point] |  |
| CC(=O)NCCNc1nc(-c2ccc(N(C)C)cc2)nc2ccccc12 | inconclusive: 25.9 µM [inhibitor, single point] |  |
| COc1ccc(/C=C\c2onc(C)c2S(=O)(=O)N2CCC(C(=O)Nc3cccc(Cl)c3)CC2)cc1 | active: 6.51 µM |  |
| COc1ccccc1NC(=O)CSc1nnc2c3ccccc3n(C(C)C)c2n1 | active: 3.66 µM |  |
| CCCCCCCC/C=C\CCCCCCCC(=O)NCCO | inactive and inconclusive: 2.91 µM [inhibitor, partial curve, poor fit] |  |
| CCOC(=O)C1CCN(C(=O)c2ccc3c(=O)n4nc(Nc5ccccc5OC)sc4nc3c2)CC1 | active: 25.9 µM |  |
| c1csc(-c2nc3ccccn3c2NC2CCCCC2)c1 | inconclusive: 32.6 µM [inhibitor, single point] |  |
| COc1ccccc1/C=C/c1onc(C)c1S(=O)(=O)N1CCC(C(=O)NC2CCCCCC2)CC1 | inconclusive: 29.1 µM [inhibitor, single point] |  |
| CC1(C)Cc2cccc(OCC(=O)N3CCN(c4ccccc4Cl)CC3)c2O1 | inconclusive: 29.1 µM [inhibitor, single point] |  |
| COc1cc(C2CC(=O)NC3=C2C(=O)CC(C)(C)C3)cc(OC)c1O (configuration not stated) | inconclusive: 29.1 µM [inhibitor, single point] |  |
| Cc1ccc(S(=O)(=O)N/N=C\c2ccccc2OCc2ccccc2)cc1 | inconclusive: 29.1 µM [inhibitor, single point] |  |

| SMILES | Potency | activity change, negative = growth inhibition |
| --- | --- | --- |
| COc1cccc(C(=O)N2CCc3c([nH]c4ccccc34)C2c2ccc(SC)cc2)c1 (configuration not stated) | inconclusive: 20.6 µM [inhibitor, single point] |  |
| O=C(Cn1cc[n+](Cc2ccccc2)c1)c1ccc([N+](=O)[O-])cc1 | active: 3.66 µM |  |
| Nc1[nH]ncc1-c1ccc(Cl)cc1 | inconclusive: 16.4 µM [inhibitor, single point] |  |
| Cc1cc(C)cc(N(CC(=O)NC2CCCCC2)C(=O)CCC(=O)Nc2cc(C)ccn2)c1 |  | inactive: -14% |
| Cc1c(Cl)cccc1NC(=S)N1CCCN(Cc2ccc(F)cc2)C1 | inconclusive: 25.9 µM [inhibitor, single point] |  |
| CC12CCC(C/C1=N\N=C1\NC(=O)/C(=C\c3ccc(Cl)cc3)S1)C2(C)C (configuration not stated) | inconclusive: 29.1 µM [inhibitor, single point] |  |
| COc1ccccc1NC(=O)Nc1nc(CC(=O)Nc2ccc(F)cc2)cs1 | inconclusive: 18.4 µM [inhibitor, single point] |  |
| O=C(COC(=O)c1cc2ccccc2oc1=O)Nc1cccc(S(=O)(=O)N2CCCCCC2)c1 | inconclusive: 29.1 µM [inhibitor, single point] |  |
| CC(=O)n1cc(C2C(=O)CC(C)(C)CC2=O)c2ccccc21 |  | inactive: -6.77% |
| COc1cc(CNCCc2ccc(S(N)(=O)=O)cc2)ccc1OCc1ccc(Cl)cc1 | active: 23.1 µM |  |
| CSc1nsc(SC)c1NC(=O)Nc1ccccc1C | inconclusive: 4.61 µM [inhibitor, full curve, poor fit] |  |
| COC(=O)c1cc(NS(=O)(=O)c2ccc(C(C)C)cc2)ccc1N1CCOCC1 | inconclusive: 29.1 µM [inhibitor, single point] |  |
| Cn1c(=O)oc2cc(S(=O)(=O)NCCC(=O)Nc3ccc4c(c3)OCCO4)ccc21 |  | inactive: -16.7% |
| COC(=O)c1ccccc1NC(=O)CNc1cc(Cl)ccc1N1CCOCC1 | inconclusive: 25.9 µM [inhibitor, single point] |  |
| CCC1(C)Cc2c(sc3c2c(=O)n(C)c2nnc(SCCc4ccccc4)n32)CO1 (configuration not stated) | inconclusive: 29.1 µM [inhibitor, single point] |  |
| O=C(NC1CCCC1)C1C(c2ccc(C(F)(F)F)cc2)=Nc2ccccc2N1C(=O)c1cccc(C(F)(F)F)c1 (configuration not stated) | inconclusive: 18.4 µM [inhibitor, single point] |  |
| O=C(Nc1cccc(C(F)(F)F)c1)c1cc(Br)cc(Br)c1O | active: 11.9 µM |  |
| CCOc1ccc(CCNC(=O)c2csc3c2CCCCC3)cc1 | inconclusive: 29.1 µM [inhibitor, single point] |  |
| CC1CCCCN1CCCOC(=O)c1ccccc1 (configuration not stated) |  | inactive: -5.86% |
| Cc1ccccc1OCc1nc(-c2ccc(-n3cccc3)cc2)no1 | inconclusive: 29.1 µM [inhibitor, single point] |  |
| COc1cc2c3nnc(-c4ccc(F)cc4)c-3cn(Cc3ccccc3F)c2cc1OC | active: 3.66 µM |  |
